# Measured values reported in PubChem BioAssay AID488969 (Vanderbilt High Throughput Screening Facility, 2010).
# In all, about 110,000 compounds were measured (“z-score”: median about -0.1, highest 2% from about 2 on). The list shows a part of the results. The source made the active and inactive calls.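 Rule for the calls: active = z-score in the third read window above 3 or below -3; inactive = the rest.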
# Biological target: Metabotropic glutamate receptor 8 (Rattus norvegicus) (UniProt P70579)
# Sequence of UniProt P70579 (P70579 whole entry, looked up): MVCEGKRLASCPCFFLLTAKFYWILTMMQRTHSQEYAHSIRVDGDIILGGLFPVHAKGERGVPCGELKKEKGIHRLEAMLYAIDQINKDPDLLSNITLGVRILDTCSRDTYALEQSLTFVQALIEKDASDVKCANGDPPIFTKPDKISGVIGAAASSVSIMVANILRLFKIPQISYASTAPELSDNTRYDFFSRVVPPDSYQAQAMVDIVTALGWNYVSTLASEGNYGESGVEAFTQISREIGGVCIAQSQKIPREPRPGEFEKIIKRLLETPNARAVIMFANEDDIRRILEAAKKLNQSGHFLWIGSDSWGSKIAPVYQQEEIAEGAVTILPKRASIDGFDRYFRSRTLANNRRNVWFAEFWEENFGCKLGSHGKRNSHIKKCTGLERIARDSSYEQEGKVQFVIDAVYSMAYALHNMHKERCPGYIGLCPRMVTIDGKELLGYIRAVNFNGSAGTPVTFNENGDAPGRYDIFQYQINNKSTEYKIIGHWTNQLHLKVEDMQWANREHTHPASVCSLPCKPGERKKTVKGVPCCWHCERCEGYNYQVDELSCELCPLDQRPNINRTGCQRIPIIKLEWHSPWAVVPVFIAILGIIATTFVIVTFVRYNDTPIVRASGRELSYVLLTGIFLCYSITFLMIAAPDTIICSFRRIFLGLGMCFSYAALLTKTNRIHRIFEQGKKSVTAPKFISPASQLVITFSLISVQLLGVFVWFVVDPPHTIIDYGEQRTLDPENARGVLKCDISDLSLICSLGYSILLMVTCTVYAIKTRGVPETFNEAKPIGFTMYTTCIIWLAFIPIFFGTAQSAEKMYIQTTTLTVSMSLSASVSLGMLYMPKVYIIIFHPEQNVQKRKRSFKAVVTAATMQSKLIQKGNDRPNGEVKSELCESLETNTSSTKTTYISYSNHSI
# Assay: rat mGluR8 modulators via GIRK flux, primary screen, cell-based, thallium flux, HTS (AID 488969)
# Conditions: HEK293 rat mGluR8, GIRK (G protein-gated inwardly rectifying potassium channel) thallium flux, FluoZin2; at 10 µM; stronger effect = higher value; submaximal glutamate (EC20) added with thallium
row,SMILES,z-score
1,Clc1cccc(/C=N\Nc2nccs2)c1,-0.201
2,O=C(CS(=O)CC(=O)N(CC(=O)NC1CCCC1)C1CCCCC1)Nc1ccc(F)cc1 (stereo unspecified),-0.57
3,COc1ccc(OC)c(-c2cc(C(=O)Nc3c(C)nn(Cc4ccccc4Cl)c3C)no2)c1,-0.834
4,CCn1cc(C(=O)OCc2cccc(Br)c2)c(=O)c2ccc(C)nc21,-0.797
5,COc1cccc(NC(=O)C2CCCCC2)c1,0.115
6,Cc1nn(-c2ccccc2)c(NC(=O)c2cccs2)c(-c2ccc(Cl)cc2)c1=O,-0.358
7,Cc1ccc(C)c(NC(=S)NCCc2ccc(S(N)(=O)=O)cc2)c1,-0.108
8,O=[N+]([O-])c1ccc(N2CCOCC2)cc1NC(c1ccccc1)c1ccccc1,-0.00498
9,Cc1cccc(-c2nsc(SCC(=O)Nc3nccs3)n2)c1,-0.757
10,CCOC(=O)c1c(C)oc2c(F)c(F)c(F)c(F)c2c1=O,-0.807
11,O=C(C[n+]1cnn(CC(=O)c2ccc(Cl)cc2Cl)c1)c1ccc([N+](=O)[O-])cc1,0.134
12,CCC(=O)c1ccccc1OCCCn1cncn1,0.311
13,COc1ccc(C(C)=O)cc1CN1C(=O)NC2(CCCCC2)C1=O,-0.229
14,CCCCC1C2=C(CC(C)(C)CC2=O)OC2=C1C(=O)CC(C)(C)C2,-0.821
15,CCc1cccc2c(C(=O)CSc3nncn3-c3ccc(OC)cc3)c[nH]c12,-0.101
16,COc1ccc(-c2noc(CCC(=O)NCC3CCN(Cc4cccc(C)c4)CC3)n2)cc1,0.183
17,O=C(C1CCC1)N1CCc2cc(S(=O)(=O)N3CCCCC3)ccc21,1.4
18,COc1cccc(-c2nc(CC(=O)O)cs2)c1OC,0.492
19,O=c1cc(N2CCc3ccccc32)[nH]c(=O)n1-c1ccc(Br)cc1,-0.058
20,CCOc1cc(/C=N/NC(=O)CNc2ccc(C)cc2)ccc1OC(=O)c1ccccc1,0.0308
21,Cc1ccc2cc3c(N)c(C(=O)N4CC(=O)Nc5ccccc54)sc3nc2c1,-0.158
22,CCCCCn1nc(-c2ccccc2)c2nc3ccccc3nc21,active: 14.9
23,Cc1c(C(=O)NC2CCCc3ccccc32)oc2ccc(S(=O)(=O)N3CCOCC3)cc12 (stereo unspecified),-0.491
24,CCN(CC)CCCN1CC(O)=C(c2nc3ccccc3s2)C1=N,-0.338

row,SMILES,z-score
1,CCOC(=O)Nc1ccc2c(c1)N(C(=O)OCCN(C)C)c1ccccc1CC2,0.202
2,CC12C(=O)N(c3ccccn3)C(=O)C1C1C=CC2C1 (stereo unspecified),0.329
3,Cc1ccc(N2CC(C(=O)Nc3cccc(F)c3)CC2=O)cc1 (stereo unspecified),0.0105
4,COc1ccc(N2CCN(c3oc(COc4ccc(Cl)cc4Cl)nc3C#N)CC2)cc1,1.29
5,CCOC(=O)/C(C#N)=C/c1cc2ccccc2nc1N1CCOCC1,-0.315
6,CCc1ccccc1NC(=O)/C(=C/c1ccccc1)c1ccccc1,-0.629
7,CCN(CC)C(=O)C1CCC(CNS(=O)(=O)c2cccc3cccnc23)CC1 (stereo unspecified),0.393
8,CC1CCC2C(=O)N(c3cccc(OS(=O)(=O)c4ccccc4)c3)C(=O)C2C1 (stereo unspecified),-0.479
9,CS(=O)(=O)N(CCC(=O)O)Cc1ccccc1,-0.0244
10,O=C(c1ccccc1)N1CCN2C(=O)c3ccccc3C12c1ccc(Cl)cc1 (stereo unspecified),-0.159
11,O=C1NCCCc2c1oc1ccc(O)cc21,-0.602
12,COc1ccc2nc(SCC(=O)Nc3ccc4c(c3)OCCO4)[nH]c2c1,-0.486
13,Cc1ccc(S(=O)(=O)N2CCN(C(=O)CSc3nnc(C)s3)C2)cc1,-0.615
14,OC(COc1ccc(OCC(O)CN2CCCCCC2)cc1)CN1CCCCCC1 (stereo unspecified),-0.0132
15,COc1cccc2c(=O)n(CC(=O)N3CCc4ccccc43)ccc12,-0.372
16,O=C(N1CCOCC1)N(Cc1ccco1)CC1CCCO1 (stereo unspecified),-0.533
17,COc1cc(C)c(S(=O)(=O)N2CCN(C)CC2)cc1C,-0.109
18,COc1ccc(OC)c(Nc2cc(-c3ccccc3)nc(N)n2)c1,-1.96
19,c1ccc(CSc2nnc(-c3sccc3-n3cccc3)o2)cc1,-0.485
20,CCN(CC(=O)Nc1ccc([N+](=O)[O-])cc1OC)c1ccccc1,-0.139
21,Cc1ccc(S(=O)(=O)N2CCOCC2)cc1NC(=O)CSc1nnc2cc(C)c3ccccc3n12,-1.43
22,CCN(CC)C(=O)CC(c1ccc(F)cc1)c1ccco1 (stereo unspecified),-0.394
23,CCOc1ccc(C(C(=O)Nc2ccc(F)cc2)N(C(=O)Cn2nnc3ccccc32)C2CC2)cc1 (stereo unspecified),-0.0744
24,CCn1c2ccccc2c2cc(NC(=O)Cc3ccc(S(=O)(=O)N4CCOCC4)s3)ccc21,0.674

row,SMILES,z-score
1,COc1ccc(NC(=O)CSc2nc(C)cc(C)n2)cc1,0.0927
2,CC1(C)Cc2c(sc3c2C2=NCCN2C=N3)CO1,0.0579
3,c1ccc(Oc2cccc(CN3CCCCC3)c2)cc1,-0.282
4,COc1ccccc1N1CCN(CC(=O)Nc2sccc2C#N)CC1,0.31
5,COc1ccc(CCCC(=O)NC2CCCCC2)cc1,-0.301
6,CN1CCN(CCCNC(=O)c2cc3c(=O)n(C)c4ccccc4c3s2)CC1,1.89
7,COc1ccc(C)cc1-n1nnnc1SCC(=O)NNC(=O)c1ccc([N+](=O)[O-])cc1,-0.112
8,COc1ccc(/C=N/n2c(SC)nnc(C(C)(C)C)c2=O)cc1,-0.584
9,Cc1cc(C)nc(N=Nc2c(O)n(Cc3ccc(Cl)cc3)c3ccccc23)n1,0.0163
10,CCCCNc1nc(-c2ccccc2)c(C(=O)OCC)cc1C#N,-0.076
11,Cn1c(=O)oc2cc(S(=O)(=O)NC3CCCc4ccccc43)ccc21 (stereo unspecified),0.254
12,CCN(CC)c1ccc2cc(C=O)c(=O)oc2c1,active: 17.6
13,Cc1ccc(NC2=NCC(=O)N2CCc2ccccc2)cc1C,-0.657
14,COc1ccc(-c2nc(-c3ccccc3)nc(Cl)c2C#N)cc1,-0.171
15,Cc1cc(NC(=O)CCC(=O)N(CC(=O)NCC2CCCO2)c2ccccc2C)no1 (stereo unspecified),-0.592
16,O=C(N1CCOCC1)N1CCN(c2nc(-c3ccc(F)cc3)cs2)CC1,0.208
17,COC(=O)N/N=C/c1ccc(-c2cc(Cl)cc(Cl)c2)o1,-2.64
18,CN(c1ccccc1C(N)=O)S(=O)(=O)c1ccccc1,0.25
19,Cc1ccc(/C=N/NC(=O)CNC(=O)Cc2ccccc2)o1,0.985
20,CCc1nnc(NC(=O)c2ccc(S(=O)(=O)N(CC(C)C)CC(C)C)cc2)o1,0.456
21,O=C1Cc2ccccc2N1c1c(Cl)cccc1Cl,-0.114
22,CC(NO)C(C)(C)NO (stereo unspecified),0.256
23,CC1(C)N([O-])C(c2cccs2)=C[N+]1=O,0.211
